Results from patent publication US5637617A, “Methods for use of GABAa receptor GABAergic compounds” (The Regents of the University of California, priority 1994, dated 1997).

Test system: rat cerebral cortex GABAA receptors expressed in oocytes
Type: cell-based
Conditions: for Potentiation at 10 μM (%) / Potentiation at 100 μM (%): Table 1, IG-Actx elicited by 10 μM GABA (<10% of maximum current), mean ± S.D., oocytes from the same frog, negative = inhibition; for potentiation of IG-Actx: drug ≤10 μM; for EC50: mean ±S.D., n=3-4, read-out: EC50 values for the facilitatory effects; for efficacy of potentiation: between mefenamic acid (≈300%) and niflumic acid (<50%); for Facilitatory effects after wash: 0.3-1 μM drug, 3-10 minute wash; for maximum levels of potentiation: FIG. 2, 1 minute pre-incubation
[1] = Example VIII, IG-Actx elicited by 10 μM GABA
[2] = Example VIII, 10 μM GABA, drug 100 μM

CC(=O)Oc1ccccc1C(=O)O [Acetylsalicylic acid]
Potentiation at 10 μM (%) (drug 10 μM): -- (no appreciable effect (<5% change from control))
Potentiation at 100 μM (%) (drug 100 μM): -- (no appreciable effect (<5% change from control))

O=C(O)Cc1ccccc1Nc1c(Cl)cccc1Cl [Diclofenac]
Potentiation at 10 μM (%) (drug 10 μM): -- (no appreciable effect (<5% change from control))
Potentiation at 100 μM (%) (drug 100 μM): -- (no appreciable effect (<5% change from control))

O=C(O)c1cc(-c2ccc(F)cc2F)ccc1O [Diflunisal, diflunisal]
potentiation of IG-Actx (10 μM GABA): comparable with flufenamic and meclofenamic acids
Potentiation at 10 μM (%) (drug 10 μM): 155 ± 24%
Potentiation at 100 μM (%) (drug 100 μM): 191 ± 29%

CC(C(=O)O)c1cccc(Oc2ccccc2)c1 (stereo not shown) [Fenoprofen]
effect on IG-Actx (10 μM GABA, drug 100 μM): some weak potentiation
Potentiation at 10 μM (%) (drug 10 μM): -- (no appreciable effect (<5% change from control))
Potentiation at 100 μM (%) (drug 100 μM): 27 ± 6%

O=C(O)c1ccccc1Nc1cccc(C(F)(F)F)c1 [Flufenamic acid]
Concentrations necessary to induce threshold levels of potentiation (IG-Actx elicited by 10 μM GABA): 0.3 to 1 µM
EC50 (IG-Actx elicited by 10 μM GABA): 8.8 ± 1.2 µM
Potentiation at 10 μM (%) (drug 10 μM): 156 ± 42%
efficacy of potentiation: intermediate efficacies

CC(C(=O)O)c1ccc(-c2ccccc2)c(F)c1 (stereo not shown) [Flurbiprofen]
effect on IG-Actx (10 μM GABA, drug 100 μM): slight reductions in current
Potentiation at 10 μM (%) (drug 10 μM): -- (no appreciable effect (<5% change from control))
Potentiation at 100 μM (%) (drug 100 μM): -7 ± 4%

O=C(O)c1ccccc1Nc1ccccc1C(=O)O [IDBA, 2.2'-Iminodibenzoic acid]
modulatory effect on IG-Actx [1]: wholly inactive as a positive modulator
effect on currents elicited by 10 μM GABA (drug ≥100 μM, FIG. 6A): only inhibitory effects

COc1ccc2c(c1)c(CC(=O)O)c(C)n2C(=O)c1ccc(Cl)cc1 [Indomethacin]
effect on IG-Actx (10 μM GABA, drug 100 μM): marginal increases
Potentiation at 10 μM (%) (drug 10 μM): -- (no appreciable effect (<5% change from control))
Potentiation at 100 μM (%) (drug 100 μM): 15 ± 10%

CC(C(=O)O)c1cccc(C(=O)c2ccccc2)c1 (stereo not shown) [Ketoprofen]
Potentiation at 10 μM (%) (drug 10 μM): -- (no appreciable effect (<5% change from control))
Potentiation at 100 μM (%) (drug 100 μM): -- (no appreciable effect (<5% change from control))

Cc1ccc(Cl)c(Nc2ccccc2C(=O)O)c1Cl [Meclofenamate, Meclofenamic acid]
Facilitatory effects after wash: essentially undetectable
Concentrations necessary to induce threshold levels of potentiation (IG-Actx elicited by 10 μM GABA): 0.1 to 0.3 µM
EC50 (IG-Actx elicited by 10 μM GABA): 6 µM
Potentiation at 10 μM (%) (drug 10 μM): 183 ± 40%
efficacy of potentiation: intermediate efficacies

Cc1cccc(Nc2ccccc2C(=O)O)c1C [Mefenamic acid]
residual effects after wash (100 μM drug, same cell as NPAA): still present after 60 minutes
Facilitatory effects after wash: essentially undetectable
effect of extended pre-incubation versus co-application with GABA (5-15 min pre-incubations in 0.5-10 μM drug): only marginally higher levels of facilitation
maximum levels of potentiation: ≈ 300%
amplification of the current response of GABAA receptors (FIG. 3, 10 μM drug, GABA 30 seconds at two minute intervals): 325%
Concentrations necessary to induce threshold levels of potentiation (IG-Actx elicited by 10 μM GABA): 0.1 to 0.3 µM
EC50 (IG-Actx elicited by 10 μM GABA): 5.2 ± 1 µM
Potentiation at 10 μM (%) (drug 10 μM): 268 ± 71%
reduction of the potentiation by a 1 minute wash (drug applied at 10 μM): 90%

O=C(O)c1ccccc1Nc1cccc([N+](=O)[O-])c1 [NPAA, N-(3-nitrophenyl) anthranilic acid]
potentiation [2]: 350-400%
modulatory effect on IG-Actx [1]: clear facilitation
time to complete wash out of potentiation (potentiation induced by 100 μM drug): < 10 min

COc1ccc2cc([C@H](C)C(=O)O)ccc2c1 [Naproxen]
effect on IG-Actx (10 μM GABA, drug 100 μM): marginal increases
Potentiation at 100 μM (%) (drug 100 μM): 11 ± 3%

O=C(O)c1cccnc1Nc1cccc(C(F)(F)F)c1 [Niflumic acid]
maximum levels of potentiation: < 50%
Concentrations necessary to induce threshold levels of potentiation (IG-Actx elicited by 10 μM GABA): 1 to 10 µM
EC50 (IG-Actx elicited by 10 μM GABA): 10.5 ± 4 µM
Potentiation at 10 μM (%) (drug 10 μM): 28 ± 8%

O=C(O)c1ccccc1Nc1ccccc1 [PAA, N-phenyl-anthranilic acid]
modulatory effect on IG-Actx (Example VIII, 10 μM GABA, drug 10 μM): essentially inactive
potentiation [2]: 30-40%

CCCCC1C(=O)N(c2ccccc2)N(c2ccccc2)C1=O [Phenylbutazone]
effect on IG-Actx (10 μM GABA, drug 100 μM): slight reductions in current
Potentiation at 10 μM (%) (drug 10 μM): -- (no appreciable effect (<5% change from control))
Potentiation at 100 μM (%) (drug 100 μM): -9 ± 2%

CN1C(C(=O)Nc2ccccn2)=C(O)c2ccccc2S1(=O)=O [Piroxicam]
effect on IG-Actx (10 μM GABA, drug 100 μM): marginal increases
Potentiation at 10 μM (%) (drug 10 μM): -- (no appreciable effect (<5% change from control))
Potentiation at 100 μM (%) (drug 100 μM): 14 ± 9%

CC1=C(CC(=O)O)c2cc(F)ccc2/C1=C\c1ccc([S+](C)[O-])cc1 (stereo not shown) [Sulindac]
potentiation of IG-Actx (10 μM GABA): relatively weak, similar to niflumic acid
Potentiation at 10 μM (%) (drug 10 μM): 21 ± 7%
Potentiation at 100 μM (%) (drug 100 μM): 123 ± 19%

Cc1ccccc1Nc1ccccc1C(=O)O [TAA, N-(O-tolyl) anthranilic acid]
modulatory effect on IG-Actx [1]: clear modulatory effects
potency relative to mefenamic acid (currents elicited by 10 μM GABA, FIG. 6B): approximately ten times less potent than mefenamic acid

Cc1ccc(C(=O)c2ccc(CC(=O)O)n2C)cc1 [Tolmetin]
Potentiation at 100 μM (%) (drug 100 μM): -- (no appreciable effect (<5% change from control))

Nc1ccccc1 [aniline]
modulatory effect on IG-Actx [1]: neither aniline (1-100 μM) nor anthranilic acid potentiated the response

Nc1ccccc1C(=O)O [anthranilic acid]
reduction of current [2]: approximately 15%
modulatory effect on IG-Actx [1]: neither aniline (1-100 μM) nor anthranilic acid potentiated the response

Where two headings read alike, the source gives them in different places.
